# Results: the supplement of paper PMC8728848
# This is one part of the list.
# Legend:
# Assay in all cases: glycan array binding signal (z-score within array); higher = stronger binding
# Conditions in all cases: glycan notation: IUPAC condensed, linker removed
# [1] = biological target: Glc(a1-2)Glc
# Procedure, shortened: (§1)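 The Consortium for Functional Glycomics database supplied 3228 glycan arrays, of which those lacking an available protein sequence were dropped. The binding signal, a within-array Z-score, was averaged across arrays of the same protein sequence and across linkers. Negative scores can be read as non-binding.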
# [2] = biological target: Glc(a1-2)Glc(a1-2)Glc
# Procedure, shortened: as §1
# [3] = biological target: Glc(a1-2)Glc(a1-2)Glc(a1-2)Glc
# Procedure, shortened: as §1
# [4] = biological target: Glc(a1-2)Glc(a1-2)Glc(a1-2)Glc(a1-2)Glc
# Procedure, shortened: as §1
# [5] = biological target: Glc(a1-2)Glc(a1-2)Glc(a1-2)Glc(a1-2)Glc(a1-2)Glc
# Procedure, shortened: as §1
# [6] = biological target: Glc(a1-2)Glc(a1-2)Glc(a1-2)Glc(a1-2)Glc(a1-2)Glc(a1-2)Glc
# Procedure, shortened: as §1
# [7] = biological target: Glc(a1-2)Glc(a1-2)Glc(a1-2)Glc(a1-2)Glc(a1-2)Glc(a1-2)Glc(a1-2)Glc
# Procedure, shortened: as §1
# [8] = biological target: Glc(a1-2)Glc(a1-2)Glc(a1-2)Glc(a1-2)Glc(a1-2)Glc(a1-2)Glc(a1-2)Glc(a1-2)Glc
# Procedure, shortened: as §1
# [9] = biological target: Glc(a1-3)Glc
# Procedure, shortened: as §1
# [10] = biological target: Glc(a1-3)Glc(a1-3)Glc
# Procedure, shortened: as §1
# [11] = biological target: Glc(a1-3)Glc(a1-3)Glc(a1-3)Glc
# Procedure, shortened: as §1
# [12] = biological target: Glc(a1-3)Glc(a1-3)Glc(a1-3)Glc(a1-3)Glc
# Procedure, shortened: as §1
# [13] = biological target: Glc(a1-3)Glc(a1-3)Glc(a1-3)Glc(a1-3)Glc(a1-3)Glc
# Procedure, shortened: as §1
# [14] = biological target: Glc(a1-3)Glc(a1-3)Glc(a1-3)Glc(a1-3)Glc(a1-3)Glc(a1-3)Glc
# Procedure, shortened: as §1
# [15] = biological target: Glc(a1-3)Glc(a1-3)Glc(a1-3)Glc(a1-3)Glc(a1-3)Glc(a1-3)Glc(a1-3)Glc
# Procedure, shortened: as §1
# [16] = biological target: Glc(a1-3)Glc(a1-3)Glc(a1-3)Glc(a1-3)Glc(a1-3)Glc(a1-3)Glc(a1-3)Glc(a1-3)Glc
# Procedure, shortened: as §1
# [17] = biological target: Glc(a1-3)Glc(a1-3)Glc(a1-3)Glc(a1-3)Glc(a1-3)Glc(a1-3)Glc(a1-3)Glc(a1-3)Glc(a1-3)Glc
# Procedure, shortened: as §1
# [18] = biological target: Glc(a1-3)Glc(a1-3)Glc(a1-3)Glc(a1-3)Glc(a1-3)Glc(a1-3)Glc(a1-3)Glc(a1-3)Glc(a1-3)Glc(a1-3)Glc
# Procedure, shortened: as §1
# [19] = biological target: Glc(a1-3)Glc(a1-3)Glc(a1-3)Glc(a1-3)Glc(a1-3)Glc(a1-3)Glc(a1-3)Glc(a1-3)Glc(a1-3)Glc(a1-3)Glc(a1-3)Glc
# Procedure, shortened: as §1
# [20] = biological target: Glc(a1-3)Glc(a1-3)Glc(a1-3)Glc(a1-3)Glc(a1-3)Glc(a1-3)Glc(a1-3)Glc(a1-3)Glc(a1-3)Glc(a1-3)Glc(a1-3)Glc(a1-3)Glc
# Procedure, shortened: as §1
# [21] = biological target: Glc(a1-4)Glc
# Procedure, shortened: as §1
# [22] = biological target: Glc(a1-4)Glc(a1-4)Glc
# Procedure, shortened: as §1
# [23] = biological target: Glc(a1-4)Glc(a1-4)Glc(a1-4)Glc
# Procedure, shortened: as §1
# [24] = biological target: Glc(a1-4)Glc(a1-4)Glc(a1-4)Glc(a1-4)Glc
# Procedure, shortened: as §1
# [25] = biological target: Glc(a1-4)Glc(a1-4)Glc(a1-4)Glc(a1-4)Glc(a1-4)Glc
# Procedure, shortened: as §1
# [26] = biological target: Glc(a1-4)Glc(a1-4)Glc(a1-4)Glc(a1-4)Glc(a1-4)Glc(a1-4)Glc
# Procedure, shortened: as §1
# [27] = biological target: Glc(a1-4)Glc(a1-4)Glc(a1-4)Glc(a1-4)Glc(a1-4)Glc(a1-4)Glc(a1-4)Glc
# Procedure, shortened: as §1
# [28] = biological target: Glc(a1-4)Glc(a1-4)Glc(a1-4)Glc(a1-4)Glc(a1-4)Glc(a1-4)Glc(a1-4)Glc(a1-4)Glc
# Procedure, shortened: as §1
# [29] = biological target: Glc(a1-4)Glc(a1-4)Glc(a1-4)Glc(a1-4)Glc(a1-4)Glc(a1-4)Glc(a1-4)Glc(a1-4)Glc(a1-4)Glc
# Procedure, shortened: as §1
# [30] = biological target: Glc(a1-4)Glc(a1-4)Glc(a1-4)Glc(a1-4)Glc(a1-4)Glc(a1-4)Glc(a1-4)Glc(a1-4)Glc(a1-4)Glc(a1-4)Glc
# Procedure, shortened: as §1
# [31] = biological target: Glc(a1-4)Glc(a1-4)Glc(a1-4)Glc(a1-4)Glc(a1-4)Glc(a1-4)Glc(a1-4)Glc(a1-4)Glc(a1-4)Glc(a1-4)Glc(a1-4)Glc
# Procedure, shortened: as §1
# [32] = biological target: Glc(a1-4)Glc(a1-4)Glc(a1-4)Glc(a1-4)Glc(a1-4)Glc(a1-4)Glc(a1-4)Glc(a1-4)Glc(a1-4)Glc(a1-4)Glc(a1-4)Glc(a1-4)Glc
# Procedure, shortened: as §1
# [33] = biological target: Glc(a1-4)Glc(a1-6)Glc
# Procedure, shortened: as §1
# [34] = biological target: Glc(a1-6)Glc
# Procedure, shortened: as §1
# [35] = biological target: Glc(a1-6)Glc(a1-4)Glc
# Procedure, shortened: as §1
# [36] = biological target: Glc(a1-6)Glc(a1-4)Glc(a1-4)Glc
# Procedure, shortened: as §1
# [37] = biological target: Glc(a1-6)Glc(a1-4)Glc(a1-4)Glc(a1-6)Glc(a1-4)Glc(a1-4)Glc
# Procedure, shortened: as §1
# [38] = biological target: Glc(a1-6)Glc(a1-6)Glc
# Procedure, shortened: as §1
# [39] = biological target: Glc(a1-6)Glc(a1-6)Glc(a1-6)Glc
# Procedure, shortened: as §1
# [40] = biological target: Glc(a1-6)Glc(a1-6)Glc(a1-6)Glc(a1-6)Glc
# Procedure, shortened: as §1
# [41] = biological target: Glc(a1-6)Glc(a1-6)Glc(a1-6)Glc(a1-6)Glc(a1-6)Glc
# Procedure, shortened: as §1
# [42] = biological target: Glc(a1-6)Glc(a1-6)Glc(a1-6)Glc(a1-6)Glc(a1-6)Glc(a1-6)Glc
# Procedure, shortened: as §1
# [43] = biological target: Glc(a1-6)Glc(a1-6)Glc(a1-6)Glc(a1-6)Glc(a1-6)Glc(a1-6)Glc(a1-6)Glc
# Procedure, shortened: as §1
# [44] = biological target: Glc(a1-6)Glc(a1-6)Glc(a1-6)Glc(a1-6)Glc(a1-6)Glc(a1-6)Glc(a1-6)Glc(a1-6)Glc
# Procedure, shortened: as §1
# [45] = biological target: Glc(a1-6)Glc(a1-6)Glc(a1-6)Glc(a1-6)Glc(a1-6)Glc(a1-6)Glc(a1-6)Glc(a1-6)Glc(a1-6)Glc
# Procedure, shortened: as §1
binder,measurement,setting,value
"Cel5A (Cellvibrio mixtus), A0A266Q9Z0 (protein) TSVAGCSGVTAWNSTAVYTGGNEVVRNGVKYQAKWWTQGQDPVTNSSADGVWANKGQC",glycan array binding signal (z-score),[1],-0.981
same,glycan array binding signal (z-score),[2],-0.994
same,glycan array binding signal (z-score),[3],-0.992
same,glycan array binding signal (z-score),[4],-0.985
same,glycan array binding signal (z-score),[5],-0.985
same,glycan array binding signal (z-score),[6],-0.989
same,glycan array binding signal (z-score),[7],-0.986
same,glycan array binding signal (z-score),[8],-0.981
same,glycan array binding signal (z-score),[9],-0.931
same,glycan array binding signal (z-score),[10],-0.977
same,glycan array binding signal (z-score),[11],-0.956
same,glycan array binding signal (z-score),[12],-0.971
same,glycan array binding signal (z-score),[13],-0.941
same,glycan array binding signal (z-score),[14],-0.928
same,glycan array binding signal (z-score),[15],-0.919
same,glycan array binding signal (z-score),[16],-0.914
same,glycan array binding signal (z-score),[17],-0.925
same,glycan array binding signal (z-score),[18],-0.954
same,glycan array binding signal (z-score),[19],-0.946
same,glycan array binding signal (z-score),[20],-0.942
same,glycan array binding signal (z-score),[21],-0.943
same,glycan array binding signal (z-score),[22],-0.961
same,glycan array binding signal (z-score),[23],-0.94
same,glycan array binding signal (z-score),[24],-0.949
same,glycan array binding signal (z-score),[25],-0.945
same,glycan array binding signal (z-score),[26],-0.941
same,glycan array binding signal (z-score),[27],-0.942
same,glycan array binding signal (z-score),[28],-0.95
same,glycan array binding signal (z-score),[29],-0.936
same,glycan array binding signal (z-score),[30],-0.924
same,glycan array binding signal (z-score),[31],-0.938
same,glycan array binding signal (z-score),[32],-0.916
same,glycan array binding signal (z-score),[33],-0.994
same,glycan array binding signal (z-score),[34],-0.913
same,glycan array binding signal (z-score),[35],-0.994
same,glycan array binding signal (z-score),[36],-0.994
same,glycan array binding signal (z-score),[37],-0.994
same,glycan array binding signal (z-score),[38],-0.942
same,glycan array binding signal (z-score),[39],-0.93
same,glycan array binding signal (z-score),[40],-0.943
same,glycan array binding signal (z-score),[41],-0.937
same,glycan array binding signal (z-score),[42],-0.926
same,glycan array binding signal (z-score),[43],-0.928
same,glycan array binding signal (z-score),[44],-0.913
same,glycan array binding signal (z-score),[45],-0.931
